Some of the results follow.
What follows are sequences tested on PfHDP1 homeodomain (GST-tagged) (assay: gcPBM binding intensity (ln(normalized median fluorescence intensity)); higher = stronger DNA binding).
Method in brief: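 For binding intensity, the highest Masliner-normalised natural-log median intensity across replicate spots of either probe orientation was taken. Protein bound to the array was stained with Alexa488 anti-GST antibody and scanned at 488 nm. The protein, GST-tagged P. falciparum DNA-binding domains from E. coli at about 25 μg on average, had been applied for 1 h to an Agilent 4 × 180k array of primer-extended double-stranded 36-bp intergenic genomic probes and negative controls.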

Sequence | gcPBM binding intensity (ln)
TGACATAAAAAATATACACACTATAATATTTATACT [CACACA_site6776] | 6.28
TCTTTATCTTCTTATACACACATTTATTAAAAAAAA [CACACA_site445] | 7.26
ATTTTTTTTTTTTTTTTTTTTGCACCATAAAATAAT [CACACA_negctrl_site1324] | 10.1
TATATACTCAAACACACACACACATACACAGACATA [CACACA_site5025] | 7.1
ATTTTGACATTATATAGTACATATAATTTACATTTA [XGTACX_site3024] | 6.64
TATATATATATGTGTACACATTTGTCAGATTATATA [CACACA_site4813] | 8.83
AGATTGGAACATTAAAGTACTTACTTTTTTTTTTTT [XGTACX_site8017] | 6.14
AGAAATATATCTATTTGTCCGTATATTCATATTTAT [XGTACX_site8427] | 6.45
ATAAAAATATTGTCTAGTACATATTTATAATAAAAA [XGTACX_site7523] | 6.54
TATATATATGAGTATACACACCTGATAAAGGTATAT [CACACA_site5462] | 6.87
GATTACTAGAAATGCACACACTGATAAAATAAGGAA [CACACA_site6131] | 10.1
TTAAACTTGAAACACACACACACACCGATATAAAAA [CACACA_site4578] | 6.9
GTGTAAATATAATTAGTTTCACAAAACAAATATTTA [CACACA_negctrl_site717] | 6.01
ATGGGTATTAAGTGTACACATATAGTGTATTTTGTT [CACACA_site4452] | 6.8
AGGCACAAAATTAAATGTACATATATATATATATAT [XGTACX_site3323] | 9.44
TATTATTAATATGTATGGTTGTAATCTGTGTCTCCT [TGCATGCA_negctrl_site190] | 6.57
AATATAATTTTTTATTGTACAAAAAAATTATTTAAT [XGTACX_site3248] | 6.2
AATAAGTATACACATACACACACACCCAAAAAAAAA [CACACA_site8034] | 6.95
TTTTTTTTTATCAAATGTACATATATATAATAATAA [XGTACX_site3941] | 6.45
CATTTTGTAAGATATGCACACATGGATCATATTTTA [CACACA_site423] | 9.5
AAAAAGAAAAATTGCACACACTTATAAAAATATACG [CACACA_site6074] | 8.71
TATATAAGAATATATACACACATATATGTATATATA [CACACA_site2178] | 6.45
TTTTACAATGAAATATGTACTTAAATGTCCAAATTC [XGTACX_site781] | 6.06

Sequence | gcPBM binding intensity (ln)
TTAACCATTAATTCTCTACACACTTTTATTTTATTT [CACACA_site8522] | 6.78
GTTAACAAATAATGCACACAAATGGATAAAATTATA [CACACA_site3725] | 9.97
ACATTCAAGCGTAATTGTACATACATATATATATAT [XGTACX_site8876] | 9.02
TATTGTATCCTTAATGCATGCACCAAATAAAAAAAG [TGCATGCA_site541] | 9.48
ATGTATATAAATAGTAGTACATTATTTCACACTGTA [XGTACX_site2061] | 6.13
CACACCCACAGACACACACACACATATATAATATAT [CACACA_site594] | 7.25
AAAAAAAAAAAAAAAGCACACACCAATGAGCAGCTT [CACACA_site1845] | 6.81
ATATGTTACAAAGATTGTACTTATTAAGGAGCGACT [XGTACX_site5094] | 6.34
TAATATATGTATTATGCATGTGAATAAGCACTTGAT [TGCATGCA_site848] | 6.6
TATAATCATATACACGCATGTATAAAATTTAATACT [TGCATGCA_site700] | 6.59
ATATATATATAATGTAGTACTATTTAATAATAAGCC [XGTACX_site1263] | 8.72
ACCATATGTACATTTTTTTTTTTTTTTTTTTTTTTT [CACACA_negctrl_site1188] | 7.08
TTCATATGTTTTAACACACACGCATATATTATATAT [CACACA_site2007] | 6.94
AAAAAAATTTGGCATACACACACACCCCCACCCACA [CACACA_site8094] | 7.4
AATAATTTGGTCTTATCAAAAATTAAAAATAAATAA [XGTACX_negctrl_site430] | 6.05
AAAAAACATTTTCGAGTGCATGTTTTGCTTTATTTC | 6.65
TTAAATGTTAAAAGGGTGCTATTATATAAATGAAAA [GTGCAC_site9882] | 6.84
ATGACAATTCAAAATTGTACATAAAAAAAAAAAAAA [XGTACX_site7560] | 6.47
TGTAAACATAAGATATGTACTTATATCATATTATAA [XGTACX_site6883] | 6.09
GTTTTATATTATATATGTACATATCCATGAGATATA [XGTACX_site3328] | 7.48
AAATAAAAATAAAATAAAATAAAATTAAATGGGAAT [GTGCAC_negctrl_site349] | 6.47
TTTAACTTTTATATAACACACATATTGTAATTATGT [CACACA_site6486] | 6.58
TAAAAATTACTATATGAACACACATGATTAGATATA [CACACA_site9012] | 6.33

Sequence | gcPBM binding intensity (ln)
AGGTGATTAATATATACACACATACATATATATATA [CACACA_site8913] | 8.75
TATAAGCTTTCAATGTGTACATATTATTTTATTATT [XGTACX_site3988] | 7.1
TCTTATAAACATGTATATATTAAAAAAAAAAAAAAA [TGCATGCA_negctrl_site86] | 6.5
AAAAATTACCCTTGTGTACACATATATTATCTGTAT [CACACA_site4513] | 7.89
AACATATTGGATTTAGTGCACATATATATCATAATA | 10
TAATAATAATTAAATTGTACATATAATATAATATAA [XGTACX_site8554] | 6.46
ATATTATCATATTCGAGTACACGAAGTATTATTGCA [XGTACX_site6765] | 6.52
AATAAAGTAATAACTACACACATTTATAAAAAAGTA [CACACA_site3753] | 6.29
ACAAGAGAAAAAAATACACACAAGATAAAAATGTAT [CACACA_site607] | 6.52
ATATATATAGATCGAAGTACAGATAGAATGAAAATA [XGTACX_site2695] | 6.8
TAAAAAAATTTTACAAGTACAAAAAAATGTAATAAA [XGTACX_site4829] | 6.41
AACCATAAAAAGTGTACACATATAAAAAATATGGAA [CACACA_site4199] | 7.4
TATATAAATTAACCAGTGCATTATTTGGAAATTATT | 9.4
ATATATCATCATGTATGTACACACATACATATATTA [XGTACX_site2814] | 6.64
TATGCTTTTACAATGTGTACTTATATTTTTCACAGG [XGTACX_site6201] | 6.79
TAATTTTCAATAATTTGTACATAATTTTTATAAATT [XGTACX_site8133] | 6.29
ACAATTATTTTGTTCTTTAATGGTAGGTTCTATGTC [CACACA_negctrl_site1419] | 6.17
TTACACATGTTTAACTGTACACATAATAGCAATATT [XGTACX_site8545] | 7.27
CATAAATTACTTTTTACACACTAAAATAAAATACAA [CACACA_site1135] | 6.46
AATACACGCAGACACACACACACACGCACATATATA [CACACA_site6447] | 7.39
CTAAAAAATAGTAAAAGTACATAAATAATTTTGCTT [XGTACX_site8919] | 5.74
ACATAATAAAAATAAATTCATAAGTAAATAAATAAA [TGCATGCA_negctrl_site186] | 6.23
TGAATAAATCAAAGCACACATACACCCACATATATA [CACACA_site286] | 6.98

Sequence | gcPBM binding intensity (ln)
TGCTACATTTTATGTACACACATATACAGATATATA [CACACA_site4646] | 6.36
GAAAAAAGAAATTAAACATGCATCTGCAAATTTAAA [TGCATGCA_site974] | 6.29
AATAATATTTAATACACACACCAGTTCTGCAAATTT [CACACA_site7712] | 7.3
AATAGTAAAAGATATACACACACCAAAAAATATAAT [CACACA_site5293] | 7.22
CAGGGCAGGGGGAAGGGTACACATAAAAGAAAATAA [XGTACX_site172] | 7.31
AAAAATAAACGACAGTGTACTAAATATTTAATTTTC [XGTACX_site3580] | 6.4
TATTCTAAAGAAATTACACACATGCAATGAAAAAAA [CACACA_site6895] | 6.48
TATAAATATATATTTTGTACTTAATATAAATTTATA [XGTACX_site7996] | 6.31
ATACAATTTATTTTAACACACGAATGAATTGATTAT [CACACA_site4160] | 6.3
ATACAAATATACTTTTGTACGAAGAAATATATATAT [XGTACX_site3912] | 7.87
GGTTCATATCTTAACACACACATACATATTATAGAT [CACACA_site7392] | 7.08
TAAAGAAACTATTCAACACACGGTCTAATTATTACA [CACACA_site1064] | 6.15
ATAAAAAAAATAAAAAGTACAAAAAAAAAAAATGGA [XGTACX_site136] | 6.64
TTATATATTTTTATGTGTACTTATATATATATATAT [XGTACX_site6211] | 8.92
TACTTATTTAAAATAGTGCATGAATAGAAGATATAT [GTGCAC_site9756] | 7.65
AACAAAAACACTTTTACACACATAAGTAAAATATAT [CACACA_site1994] | 6.62
ATTTCCCTATATAGAGCATGCACTATATTCAAATGA [TGCATGCA_site531] | 8.59
CACAAAGACACAAACACACACACACCCACATACATA [CACACA_site452] | 6.86
TTTTATAATTTCTTCTGTACATATATATGAAAATAT [XGTACX_site74] | 6.67
TCAACCAAAACATAAGCATGCAATATATTTTTATAC [TGCATGCA_site560] | 6.56

— the supplement of paper PMC11417369
